62 compounds from the supplement of paper PMC9446081 can be followed below.

The campaign covered roughly 39,000 compounds. About 220 (0.56%) showed activity. This is one part of the list.
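Also: static incubation at 37 °C against the wild-type strain, values averaged over two biological replicates.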

In this test the test system is Escherichia coli K-12 BW25113. The test can be described thus: relative growth (OD600 normalised to plate interquartile mean) (fraction); higher = less growth inhibition, active = 0.2 or less. The settings on record: 50 µM; LB; incubation time: overnight (16-24 h).
Turning to `Cc1noc(C)c1NC(=O)N(C)C[C@H]1Oc2c(NS(=O)(=O)c3ccccc3)cccc2C(=O)N([C@H](C)CO)C[C@@H]1C`, the relative growth is inactive: 0.96.
On to `CN(C)CC#Cc1ccc([C@@H]2[C@H]3CN(C(=O)c4cccnc4)CC(=O)N3[C@H]2CO)cc1`, for which the relative growth is inactive: 0.994.
The value for `C[C@@H]1CN([C@H](C)CO)C(=O)c2cc(NC(=O)NC3CCCCC3)ccc2O[C@@H](C)CCCCO[C@H]1CN(C)C(=O)c1ccncc1` was inactive: 0.991.
The value for `C[C@@H]1CN([C@@H](C)CO)C(=O)c2cc(NS(=O)(=O)c3ccc(F)cc3)ccc2O[C@@H](C)CCCCO[C@@H]1CN(C)Cc1ccccc1` was inactive: 0.948.
The same measure for `O=C(C[C@H]1C=C[C@@H](NS(=O)(=O)c2ccccc2F)[C@H](CO)O1)NCCCN1CCOCC1`: inactive: 1; for `C[C@H]1CN([C@@H](C)CO)C(=O)c2cc(C#CC3CCCCC3)cnc2O[C@H]1CN(C)C(=O)c1ccncc1`: inactive: 0.995; for `Cc1[nH]c2ncnn2c(=O)c1NS(C)(=O)=O`: inactive: 0.986.
With `COc1ccc(NC(=O)N(C)C[C@H]2OCCCC[C@H](C)Oc3ccc(NS(=O)(=O)c4ccc(F)cc4)cc3C(=O)N([C@H](C)CO)C[C@@H]2C)cc1`, the relative growth is inactive: 1.
The value for `COc1ccnc(N)c1` was inactive: 0.989; that for `COc1ccccc1-c1cnc2c(c1)C(=O)N([C@@H](C)CO)C[C@@H](C)[C@@H](CN(C)C(=O)c1ccncc1)O2` was inactive: 1.03; that for `Cc1noc(C)c1S(=O)(=O)N(C)C[C@@H]1OCCCC[C@@H](C)Oc2ccc(N(C)C)cc2C(=O)N([C@@H](C)CO)C[C@@H]1C` was inactive: 1.04.
On to `CC(C)(C)S(=O)N1Cc2cc(C(=O)NCc3ccc(Oc4ccccc4)cc3)nc(-c3cccc(-c4cccc(F)c4)c3)c2[C@@H]1CCO` (some centres not stated), for which the relative growth is inactive: 1.01.
The same measure for `C[C@@H]1CN([C@@H](C)CO)C(=O)c2c(c3ccccc3n2C)-c2ccccc2CO[C@H]1CN(C)Cc1cccc2c1OCCCO2`: inactive: 1.01; for `C[C@@H]1CN([C@H](C)CO)C(=O)c2cccc(NC(=O)c3ccc(-c4nccs4)cc3)c2O[C@H]1CN(C)Cc1ccccc1`: inactive: 1.01; for `C[C@@H]1CN([C@@H](C)CO)C(=O)c2ccccc2-c2ccccc2CO[C@H]1CN(C)C(=O)Nc1cccc(C(F)(F)F)c1`: inactive: 1.
The value for `O=C1[N-]C(=O)C(c2ccccc2)(c2ccccc2)N1.[Na+]` was inactive: 1.07.
The same measure for `CCS(=O)(=O)Nc1ccc2c(c1)C(=O)N(C)[C@@H]1CC[C@@H](CC(=O)NCCCN3CCOCC3)O[C@H]1CO2`: inactive: 0.991; for `CC(C)=C[C@H]1[C@@H](c2nc3cc(Br)ccc3o2)C1(C)C`: inactive: 1; for `CC(C)NC(=O)NCC[C@@H]1CC[C@H](NC(=O)CN(C)C)[C@@H](CO)O1`: inactive: 0.966.
With `O=C(N[C@@H](c1ccccc1)c1ccc2ccccc2n1)C1CCN(Cc2ccc(Cl)c(Cl)c2)CC1`, the relative growth was inactive: 1.01.
Consider `O=C1NC(=O)C2(CCCC2)N1`, for which the relative growth was inactive: 1.01.
The same measure for `C[C@@H]1CN([C@@H](C)CO)C(=O)c2cc(NC(=O)c3ccccc3)ccc2O[C@@H](C)CCCCO[C@@H]1CN(C)Cc1ccc(C(=O)O)cc1`: inactive: 1; for `CO[C@@H]1CN(C)C(=O)c2cc(NC(=O)c3ccc(Oc4ccccc4)cc3)ccc2OC[C@@H](C)N(C(C)=O)C[C@H]1C`: inactive: 0.993; for `CCCNC(=O)C[C@H]1CC[C@@H]2[C@H](COc3ccc(NS(=O)(=O)c4ccccc4C)cc3C(=O)N2C)O1`: inactive: 1.01.
Take `C[C@@H]1CN([C@H](C)CO)C(=O)c2cccc(NC(=O)NC3CCCCC3)c2O[C@@H]1CN(C)Cc1ccc(Oc2ccccc2)cc1`: the relative growth is inactive: 1.03.
The same measure for `Cc1ccc(S(=O)(=O)N(C)C[C@@H]2OCCCC[C@@H](C)Oc3ccc(NC(=O)Nc4ccc5c(c4)OCO5)cc3C(=O)N([C@@H](C)CO)C[C@@H]2C)cc1`: inactive: 1.04; for `CCOC(=O)C(CCc1ccccc1)NC(C)C(=O)N1Cc2cc(OC)c(OC)cc2CC1C(=O)O.Cl` (configuration not stated): inactive: 0.851.
The same measure for `C[C@@H]1CN([C@H](C)CO)C(=O)Cc2cc(NC(=O)CCCCCC(=O)Nc3ccccc3N)ccc2O[C@H]1CN(C)Cc1ccc(-c2ccccc2)cc1`: inactive: 0.974.
The value for `C[C@@H]1CCCCO[C@H](CN(C)C(=O)Nc2cccc3ccccc23)[C@@H](C)CN([C@@H](C)CO)C(=O)c2cc(NC(=O)c3ccncc3)ccc2O1` was inactive: 0.995.
As for `CC1CCCC(C)N1` (configuration not stated), the relative growth is inactive: 1.11.
Take `C[C@@H]1CN([C@H](C)CO)C(=O)c2cc(C#Cc3ccncc3)cnc2O[C@H]1CN(C)S(=O)(=O)c1ccccc1F`: the relative growth was inactive: 0.993.
The value for `COc1ccc(NC(=O)N(C)C[C@H]2Oc3c(NS(C)(=O)=O)cccc3C(=O)N([C@H](C)CO)C[C@@H]2C)cc1` was inactive: 0.987; that for `C[C@H](CO)N1C[C@H](C)[C@@H](CN(C)Cc2ccc3c(c2)OCO3)OCCCC[C@H](C)Oc2ccc(NC(=O)c3ccccc3)cc2C1=O` was inactive: 1.01; that for `CC1=C(C(=O)O)N2C(=O)[C@@H](NC(=O)[C@H](N)c3ccc(O)cc3)[C@H]2SC1` was inactive: 1.06.
The value for `COCCCOc1cc(C[C@@H](C[C@H](N)[C@@H](O)C[C@H](C(=O)NCC(C)(C)C(N)=O)C(C)C)C(C)C)ccc1OC` was inactive: 1.03.
The same measure for `O=C(N[C@H]1CC[C@@H](CCNS(=O)(=O)c2ccccc2)O[C@@H]1CO)c1cnccn1`: inactive: 0.943; for `C[C@H](CO)N1C[C@H](C)[C@@H](CN(C)Cc2ccc(C(=O)Nc3ccccc3N)cc2)Oc2ccc(NC(=O)Cc3cn(C)c4ccccc34)cc2CC1=O`: inactive: 0.974.
Consider `C[C@@H]1CCCCO[C@H](CN(C)S(=O)(=O)c2ccccc2)[C@@H](C)CN([C@H](C)CO)C(=O)c2cc(NC(=O)c3ccccc3)ccc2O1`, for which the relative growth was inactive: 0.979.
The same measure for `C[C@H]1CN([C@@H](C)CO)S(=O)(=O)c2ccc(-c3cccnc3)cc2O[C@H]1CN(C)C(=O)NC1CCCCC1`: inactive: 1.01; for `Cc1noc(C)c1NC(=O)Nc1ccc2c(c1)C(=O)N([C@H](C)CO)C[C@H](C)[C@@H](CN(C)S(=O)(=O)c1ccc(Cl)cc1)OCCCC[C@@H](C)O2`: inactive: 0.997; for `C[C@@H]1CCCCO[C@H](CN(C)C(=O)C2CCCCC2)[C@@H](C)CN([C@H](C)CO)C(=O)c2cc(NC(=O)c3ccncc3)ccc2O1`: inactive: 0.995.
The value for `C[C@@H]1CN([C@H](C)CO)C(=O)c2cc(NC(=O)Nc3ccc4c(c3)OCO4)ccc2O[C@H]1CN(C)C(=O)Nc1ccc(C(F)(F)F)cc1` was inactive: 0.992; that for `CS(=O)(=O)N1CCn2cc(Cn3cccn3)nc2C1` was inactive: 0.999; that for `O=C(O)[C@H]1/C(=C/CO)O[C@@H]2CC(=O)N21` was inactive: 0.969.
The value for `Cc1noc(C)c1S(=O)(=O)Nc1ccc2c(c1)C(=O)N([C@@H](C)CO)C[C@@H](C)[C@H](CN(C)CC1CC1)O2` was inactive: 0.997.
In the case of `C[C@H]1CN([C@@H](C)CO)C(=O)Cc2cc(NC(=O)Nc3ccccc3)ccc2O[C@H]1CN(C)Cc1ccc(Oc2ccccc2)cc1`, the relative growth was inactive: 1.01.
The value for `O=C1COC[C@@H](c2ccccc2)N1` was inactive: 1.01; that for `C[C@@H]1CN([C@H](C)CO)C(=O)c2c(c3ccccc3n2C)-c2ccccc2CO[C@H]1CN(C)Cc1ccc2c(c1)OCO2` was inactive: 0.967.
The value for `Cl.Cl.OCCOCCN1CCN(C(c2ccccc2)c2ccc(Cl)cc2)CC1` (configuration not stated) was inactive: 1; that for `COc1ccc(NC(=O)N(C)C[C@@H]2OCCCC[C@H](C)Oc3ccc(NC(=O)c4ccccc4)cc3C(=O)N([C@H](C)CO)C[C@H]2C)cc1` was inactive: 0.986.
For `COc1cccc(-c2cccc(-c3nc(C(=O)N[C@@H]4CCN(Cc5ccccc5)C4)cc4c3[C@H](CCO)N(S(=O)C(C)(C)C)C4)c2)c1` (some centres not stated), the relative growth is inactive: 0.983.
The same measure for `C[C@@H]1CCCCO[C@H](CN(C)S(=O)(=O)c2cn(C)cn2)[C@@H](C)CN([C@@H](C)CO)C(=O)c2cc(NC(=O)Nc3ccc(C(F)(F)F)cc3)ccc2O1`: inactive: 1.01; for `COc1cc(C)nc(SCC(N)=O)n1`: inactive: 0.996.
As for `c1ccc(-n2ncc3c2ncn2nnnc32)cc1`, the relative growth was inactive: 0.996.
The value for `COc1ccc(S(=O)(=O)N(C)C[C@H]2OCc3cn(nn3)CCCC(=O)N([C@H](C)CO)C[C@@H]2C)cc1` was inactive: 1.02.
The same measure for `C[C@@H]1CCCCO[C@@H](CN(C)Cc2ccc(C(F)(F)F)cc2)[C@@H](C)CN([C@H](C)CO)C(=O)c2cc(NC(=O)Nc3cccc4ccccc34)ccc2O1`: inactive: 1.02; for `COc1ccc(NC(=O)Nc2ccc3c(c2)C(=O)N([C@@H](C)CO)C[C@@H](C)[C@@H](CN(C)S(=O)(=O)c2ccc(C)cc2)OCCCC[C@@H](C)O3)cc1`: inactive: 1.03; for `C[C@@H]1CN([C@@H](C)CO)C(=O)c2cccc(NS(C)(=O)=O)c2O[C@H]1CN(C)S(=O)(=O)c1ccccc1`: inactive: 1.01.
The value for `O=C(C[C@H]1CC[C@@H]2[C@H](COC[C@@H](O)CN2Cc2cc(F)ccc2F)O1)N[C@H]1CCN(Cc2ccccc2)C1` was inactive: 1.02; that for `C[C@H](CO)N1C[C@H](C)[C@H](CN(C)S(=O)(=O)c2ccc(C#N)cc2)Oc2ncc(-c3cccc(F)c3)cc2C1=O` was inactive: 1.
On to `CC(C)NC(=O)Nc1ccc2c(c1)CC(=O)N([C@H](C)CO)C[C@H](C)[C@@H](CN(C)C(=O)Nc1ccc3c(c1)OCO3)O2`, for which the relative growth was inactive: 1.01.
`C[C@H](CO)N1C[C@H](C)[C@@H](CN(C)C(=O)Nc2ccc(F)cc2)OCCCC[C@H](C)Oc2ccc(NC(=O)CCCN(C)C)cc2C1=O`: the relative growth was inactive: 0.986.
